This is an account of results in publication PMC4081100.

Common to all, as to assay: universal protein binding microarray (PBM)
Details in all cases: transcription factors of Arabidopsis thaliana; high values mean tight binding; most listed sequences are background and not binding sites; double strand, one strand shown

Test [1] concerns the target T1, GST-ANAC092(1-176) (UniProt Q9FKA0).
T1 sequence: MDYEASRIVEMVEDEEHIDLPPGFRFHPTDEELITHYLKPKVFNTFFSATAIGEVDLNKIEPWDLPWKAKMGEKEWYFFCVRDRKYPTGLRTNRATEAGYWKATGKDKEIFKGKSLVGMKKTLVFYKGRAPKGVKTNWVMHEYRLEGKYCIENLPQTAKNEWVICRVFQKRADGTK

Test [2] concerns the target GST-NTL6(1-168) (UniProt Q9SCK6).
For test [3], the target named is T2, GST-ANAC019 NAC domain (UniProt Q9C932).
T2 sequence: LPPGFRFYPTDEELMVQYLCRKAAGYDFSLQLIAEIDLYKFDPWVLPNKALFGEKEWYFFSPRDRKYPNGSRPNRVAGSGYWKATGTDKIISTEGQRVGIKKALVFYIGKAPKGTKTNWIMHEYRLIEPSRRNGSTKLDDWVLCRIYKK

The target in test [4] is T3, GST-ANAC055(1-171) (UniProt Q9LDY8).
T3 sequence: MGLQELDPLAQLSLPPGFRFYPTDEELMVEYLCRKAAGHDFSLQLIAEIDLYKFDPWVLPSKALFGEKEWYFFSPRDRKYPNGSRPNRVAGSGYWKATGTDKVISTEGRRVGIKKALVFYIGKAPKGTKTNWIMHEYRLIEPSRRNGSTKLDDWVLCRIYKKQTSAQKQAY

Test [5] concerns the target T4, GST-ATAF1 NAC domain (UniProt Q39013).
T4 sequence: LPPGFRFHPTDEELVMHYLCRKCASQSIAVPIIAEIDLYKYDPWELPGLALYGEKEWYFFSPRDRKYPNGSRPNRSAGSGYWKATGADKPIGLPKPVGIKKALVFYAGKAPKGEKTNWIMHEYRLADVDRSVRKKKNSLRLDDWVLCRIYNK

For test [6], the target named is T5, GST-ANAC092(1-285) full length (UniProt Q9FKA0).
T5 sequence: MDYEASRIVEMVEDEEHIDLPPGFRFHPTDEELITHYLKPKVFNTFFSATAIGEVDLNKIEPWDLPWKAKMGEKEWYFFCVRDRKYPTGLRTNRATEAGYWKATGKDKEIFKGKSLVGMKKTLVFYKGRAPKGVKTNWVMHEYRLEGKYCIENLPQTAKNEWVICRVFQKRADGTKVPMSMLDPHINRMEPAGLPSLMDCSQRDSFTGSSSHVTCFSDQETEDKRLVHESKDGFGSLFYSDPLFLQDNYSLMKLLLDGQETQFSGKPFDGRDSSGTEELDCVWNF

Test [7] addresses T6, GST-NAP(1-166) (UniProt O49255).
T6 sequence: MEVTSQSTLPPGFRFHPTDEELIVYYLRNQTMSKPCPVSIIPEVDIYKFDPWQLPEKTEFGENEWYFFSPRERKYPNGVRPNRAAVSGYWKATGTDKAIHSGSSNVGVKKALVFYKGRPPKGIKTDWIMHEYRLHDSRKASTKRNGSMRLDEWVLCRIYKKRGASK

For test [8], the target named is T7, GST-NST2(1-184) (UniProt Q9M274).
T7 sequence: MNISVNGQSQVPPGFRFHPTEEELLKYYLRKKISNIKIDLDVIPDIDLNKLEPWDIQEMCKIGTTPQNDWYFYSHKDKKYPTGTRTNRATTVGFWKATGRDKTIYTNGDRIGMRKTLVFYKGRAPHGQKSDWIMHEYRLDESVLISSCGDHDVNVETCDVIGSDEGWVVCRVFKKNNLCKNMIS

Test [9] concerns the target T8, GST-SND1(1-203) (UniProt Q9LPI7).
T8 sequence: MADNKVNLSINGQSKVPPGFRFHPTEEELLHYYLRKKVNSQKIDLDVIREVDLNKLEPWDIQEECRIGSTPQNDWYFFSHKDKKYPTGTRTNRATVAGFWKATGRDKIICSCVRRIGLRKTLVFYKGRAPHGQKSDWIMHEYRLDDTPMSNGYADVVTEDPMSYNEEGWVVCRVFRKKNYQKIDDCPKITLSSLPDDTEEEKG

In test [10] the target is T9, GST-VND3 NAC domain (UniProt Q9FH59).
T9 sequence: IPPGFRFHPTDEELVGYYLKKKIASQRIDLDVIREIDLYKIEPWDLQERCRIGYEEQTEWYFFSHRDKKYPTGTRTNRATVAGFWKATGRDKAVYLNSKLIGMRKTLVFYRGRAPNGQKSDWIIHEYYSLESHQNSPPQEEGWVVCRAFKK

The target in test [11] is T10, GST-VND7 NAC domain (UniProt Q9C8W9).
T10 sequence: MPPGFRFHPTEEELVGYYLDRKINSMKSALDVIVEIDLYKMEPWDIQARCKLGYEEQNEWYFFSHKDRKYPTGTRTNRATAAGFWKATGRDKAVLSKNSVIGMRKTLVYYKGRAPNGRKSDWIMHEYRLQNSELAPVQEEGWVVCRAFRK

Test [12] addresses T11, GST-VOZ2 (Arabidopsis thaliana) (UniProt Q9SLB9).
T11 sequence: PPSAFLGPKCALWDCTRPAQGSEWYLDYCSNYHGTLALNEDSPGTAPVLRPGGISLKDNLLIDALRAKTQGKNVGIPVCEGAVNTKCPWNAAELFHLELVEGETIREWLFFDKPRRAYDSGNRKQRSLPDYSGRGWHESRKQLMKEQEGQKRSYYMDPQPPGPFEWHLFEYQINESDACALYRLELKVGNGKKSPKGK

Test [13] addresses T12, GST-NTL8 NAC domain (UniProt Q9XIN7).
T12 sequence: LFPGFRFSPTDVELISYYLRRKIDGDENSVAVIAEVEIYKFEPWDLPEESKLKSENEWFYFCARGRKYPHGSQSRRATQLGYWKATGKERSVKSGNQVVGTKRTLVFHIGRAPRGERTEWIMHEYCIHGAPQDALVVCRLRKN

This is a selection; strong and weak results do not stand in their true shares. For part of these data: At the low end of the ranking the order means little. The list shows a part of the results. For part of these data: The source does not settle which construct or isoform was used.

Take GGAAGTCA: the binding signal in test [1] is -0.0331 E-score; in test [2] it was 0.132 E-score; in [3], 0.0521 E-score; in test [4] it was 0.0264 E-score; in test [5] it was 0.0278 E-score; in test [6], 0.0837 E-score. The binding signal in [7] is 0.02 E-score; in [8], 0.0436 E-score; in test [9], 0.0478 E-score; in test [10] it was -0.0709 E-score; in [11], 0.0473 E-score; in test [12] it was -0.0362 E-score.

On to CGGTCAGA, for which the binding signal in test [1] is -0.151 E-score; in test [2] it was -0.21 E-score; in test [3], -0.0727 E-score; in [4], -0.292 E-score; in [5] it was -0.248 E-score; in test [6], -0.272 E-score. Further, the binding signal was -0.1 E-score in test [7]; -0.201 E-score in [8]; -0.0759 E-score in test [13]; -0.165 E-score in test [9]; -0.161 E-score in test [10]; -0.105 E-score in test [11]. This sequence displayed a binding signal in test [12] of -0.108 E-score.

CTGACCCA: the binding signal in [1] was -0.0868 E-score; in test [2], -0.0281 E-score; in test [3], -0.131 E-score; in test [4], -0.0559 E-score; in test [5] it was -0.0666 E-score; in test [6], -0.174 E-score. In addition, the binding signal in [7] is -0.195 E-score; in test [8], 0.0484 E-score; in test [13] it was 0.00513 E-score; in [9], -0.118 E-score; in test [10], -0.0707 E-score; in test [11] it was -0.139 E-score. Further, the binding signal in [12] worked out at 0.0751 E-score.

For the sequence CGTCTGAC, the binding signal in test [1] is -0.16 E-score; in test [2], -0.183 E-score; in [3], 0.0304 E-score; in test [4], -0.0621 E-score; in test [5] it was -0.066 E-score; in test [6], -0.0675 E-score. Further, the binding signal in test [7] was -0.012 E-score; in [8], -0.0502 E-score; in test [13] it was -0.135 E-score; in test [9], -0.0322 E-score; in [10], -0.0622 E-score; in [11], -0.0229 E-score. This sequence gave a binding signal in test [12] of -0.0316 E-score.

In the case of GGGGGTCA, the binding signal was -0.282 E-score in [1]; -0.133 E-score in test [2]; -0.189 E-score in test [3]; -0.184 E-score in test [4]; -0.261 E-score in test [5]; -0.2 E-score in test [6]. In addition, the binding signal is 0.0274 E-score in test [7]; -0.246 E-score in [8]; -0.065 E-score in [13]; -0.156 E-score in test [9]; -0.344 E-score in test [10]; -0.24 E-score in [11]. In test [12], this sequence yielded a binding signal of 0.108 E-score.

As for ATTGACTC, the binding signal in test [1] is -0.107 E-score; in test [2], 0.0232 E-score; in test [3], -0.0576 E-score; in [4], -0.0405 E-score; in test [5], -0.177 E-score; in [6], -0.0827 E-score. For the same sequence, the binding signal in test [7] was -0.0325 E-score; in test [8], 0.0173 E-score; in [13], -0.0178 E-score; in [9], -0.05 E-score; in test [10], 0.0459 E-score; in test [11], -0.0595 E-score. The binding signal in [12] was -0.103 E-score.

As for ATCGGTCA, the binding signal was -0.133 E-score in test [1]; -0.134 E-score in test [2]; -0.217 E-score in test [3]; -0.0912 E-score in [4]; -0.0954 E-score in test [5]; -0.131 E-score in [6]. Moreover, the binding signal was 0.00931 E-score in [7]; -0.11 E-score in [8]; -0.119 E-score in test [13]; -0.144 E-score in test [9]; -0.0835 E-score in [10]; -0.174 E-score in test [11]. The sequence also gave a binding signal in [12] of -0.074 E-score.

For the sequence ATTTGACC, the binding signal in [1] was -0.0376 E-score; in [2], -0.0389 E-score; in [3] it was -0.11 E-score; in test [4], 0.079 E-score; in test [5] it was 0.00561 E-score; in test [6] it was -0.087 E-score. Moreover, the binding signal was -0.0283 E-score in test [7]; -0.0162 E-score in test [8]; -0.141 E-score in test [13]; -0.113 E-score in test [9]; -0.00194 E-score in test [10]; -0.0905 E-score in test [11]. The sequence further displayed a binding signal in [12] of 0.0742 E-score.

On to CCTCTGAC, for which the binding signal in [1] was -0.0816 E-score; in test [2], -0.122 E-score; in test [3] it was -0.0563 E-score; in [4] it was -0.269 E-score; in [5], -0.21 E-score; in test [6], -0.0507 E-score. Moreover, the binding signal was -0.103 E-score in [7]; -0.132 E-score in test [8]; -0.0348 E-score in [9]; -0.172 E-score in test [10]; -0.123 E-score in [11]; -0.162 E-score in test [12].

With CCTTTGAC, the binding signal in [1] was 0.0178 E-score; in [2] it was -0.0426 E-score; in test [3], -0.0303 E-score; in test [4], -0.0261 E-score; in test [5] it was -0.0469 E-score; in test [6], -0.0184 E-score. For the same sequence, the binding signal in test [7] was -0.0634 E-score; in test [8], -0.00645 E-score; in test [13], 0.0589 E-score; in test [9] it was 0.101 E-score; in test [10], -0.0838 E-score; in test [11], 0.0281 E-score. Further, the binding signal in test [12] is -0.0269 E-score.

On to CGGGTCAA, for which the binding signal was -0.0873 E-score in test [1]; -0.192 E-score in test [2]; -0.0632 E-score in [3]; -0.0804 E-score in test [4]; -0.0497 E-score in test [5]; -0.186 E-score in test [6]. In addition, the binding signal in test [7] was -0.104 E-score; in test [8] it was 0.0301 E-score; in test [13] it was -0.207 E-score; in test [9] it was -0.0733 E-score; in [10], -0.298 E-score; in [11] it was -0.154 E-score. Also, in [12], the binding signal is 0.0872 E-score.
